# According to paper PMC4336329 (PLoS ONE, 2015):
# Hit rate of the full screen: of about 310,000 compounds, about 2,200 (0.71%) showed an effect of 50% or more. The effect is printed as a negative number. Some of the results follow.
# Target: human ether-à-go-go-related gene (hERG) potassium channel (human, UniProt Q12809)
# Experiment: primary screen, population patch clamp on CHO cells stably expressing hERG
# human ether-à-go-go-related gene (hERG) potassium channel, sequence (Q12809 whole entry, looked up): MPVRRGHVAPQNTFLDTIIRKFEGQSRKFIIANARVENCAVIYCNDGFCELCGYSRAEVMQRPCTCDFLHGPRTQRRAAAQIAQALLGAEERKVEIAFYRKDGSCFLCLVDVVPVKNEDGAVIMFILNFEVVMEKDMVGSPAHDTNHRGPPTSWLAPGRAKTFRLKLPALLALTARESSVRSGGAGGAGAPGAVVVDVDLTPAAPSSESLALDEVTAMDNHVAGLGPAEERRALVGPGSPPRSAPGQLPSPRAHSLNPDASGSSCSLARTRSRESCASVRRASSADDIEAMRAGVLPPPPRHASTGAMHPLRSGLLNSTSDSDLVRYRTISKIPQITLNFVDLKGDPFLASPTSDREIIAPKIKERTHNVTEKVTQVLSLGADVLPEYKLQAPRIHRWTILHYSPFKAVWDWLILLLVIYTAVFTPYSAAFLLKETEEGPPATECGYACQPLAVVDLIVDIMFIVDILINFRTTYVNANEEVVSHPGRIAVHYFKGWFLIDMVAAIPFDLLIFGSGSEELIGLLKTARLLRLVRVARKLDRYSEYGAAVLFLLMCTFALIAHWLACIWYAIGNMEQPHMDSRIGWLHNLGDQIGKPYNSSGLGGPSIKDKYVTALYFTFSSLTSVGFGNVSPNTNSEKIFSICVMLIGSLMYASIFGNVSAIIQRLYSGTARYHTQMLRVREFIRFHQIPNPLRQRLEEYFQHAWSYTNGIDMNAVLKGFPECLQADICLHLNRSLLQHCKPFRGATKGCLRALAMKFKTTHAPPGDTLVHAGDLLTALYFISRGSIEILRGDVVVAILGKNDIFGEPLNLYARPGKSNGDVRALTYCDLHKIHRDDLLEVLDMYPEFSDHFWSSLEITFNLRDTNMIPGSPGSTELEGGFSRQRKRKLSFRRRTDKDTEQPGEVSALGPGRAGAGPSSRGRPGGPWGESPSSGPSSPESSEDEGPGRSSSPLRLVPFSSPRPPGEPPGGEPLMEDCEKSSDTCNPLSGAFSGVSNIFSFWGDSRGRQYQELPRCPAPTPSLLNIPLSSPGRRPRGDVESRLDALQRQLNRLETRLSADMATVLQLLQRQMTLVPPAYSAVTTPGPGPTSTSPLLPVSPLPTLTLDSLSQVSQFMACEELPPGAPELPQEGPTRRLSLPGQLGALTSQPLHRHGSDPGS
row,SMILES,"hERG current change (%, negative = inhibition) at 1uM"
1,CCOc1ccc(NC(=O)COC(=O)c2cc(=O)c3ccccc3o2)cc1,14.1%
2,CCc1nc(SCC(=O)NNC(=O)c2ccc(C)cc2)c2ccccc2n1,8.56%
3,Cc1c(C#N)c2ccccc2n1C,19.2%
4,O=C(c1ccc(F)cc1)C(Cc1ccccc1)N1CCCCC1 (stereo not shown),4.96%
5,COc1ccc(CNC(=O)CN(Cc2ccco2)C(=O)CNS(=O)(=O)c2ccc(F)cc2)cc1,-0.564%
6,COc1cc(C(=O)Nc2nc3ccc(S(C)(=O)=O)cc3s2)cc(OC)c1C,16.1%
7,O=C(Cc1cccs1)Nc1nncs1,11.2%
8,COc1ccc(NS(=O)(=O)c2cccc(C(=O)NNC(=O)CN3C(=O)NC(C)(C)C3=O)c2)cc1,10.9%
9,O=S(=O)(Nc1ccc2c(c1)OCCO2)c1ccc(F)c(F)c1,-1.38%
10,CCCCCc1ccc(-c2ccc(/C=C/C(N)=O)cc2)nc1,9.95%
11,O=C(O)c1ccc(CNC(=O)C2CCCN2C(=O)OCc2ccccc2)cc1 (stereo not shown),7.89%
12,Cc1ccc(OCCCCCN2CCOCC2)cc1,11.4%
13,N#Cc1cc2c(nc1SCc1ccc(Cl)cc1)CCCC2,18.1%
14,CCC(C)Sc1nnc(CNC(=O)C23CC4CC(CC(C4)C2)C3)n1C1CCCCC1 (stereo not shown),10.7%
15,O=C(CCl)NCc1c(Cl)cccc1-n1cccc1,3.78%
16,Cc1ccc(CCNC(=O)CCS(=O)(=O)c2ccc(Br)cc2)cc1,-5.38%
17,O=C(c1ccco1)N1CCN(C(=O)c2snc3ccc(Cl)cc23)CC1,-3.3%
18,Cc1cc(Br)c(NC(=O)CN2CC=C(c3ccccc3)CC2)c(Br)c1,14.9%
19,CCOc1ccc2nc(SCC(=O)c3ccc(O)cc3O)sc2c1,15.3%
20,CC1(C)NC(=O)N(CCCCOc2ccc3c(c2)CCC3)C1=O,0.315%
21,CC1CCc2sc(C(=O)N(C)CC(=O)Nc3cccc(F)c3)cc2C1 (stereo not shown),4.78%
22,O=C1NCC(COCC2CC=CCC2)O1 (stereo not shown),-11.3%
23,CCC(=O)Nc1ccccc1C(=O)NC1CCCCC1,5.02%

row,SMILES,"hERG current change (%, negative = inhibition) at 1uM"
1,C=CCNC(=O)c1ccncc1,7.06%
2,O=C(Cn1cc(C(F)(F)F)ccc1=O)Nc1cc(S(=O)(=O)N2CCOCC2)ccc1Cl,7.79%
3,COc1ccc(-c2csc3ncnc(Nc4ccc(O)cc4)c23)cc1,13.1%
4,O=C(NCCOc1ccccc1F)c1cc(F)c(F)cc1Cl,-3.8%
5,CC(C)NC(=O)c1ccccc1NC(=O)CCc1ccccc1,0.447%
6,CC(C)CCNC(=O)NC(=O)CSc1ccc(S(=O)(=O)N2CCOCC2)cn1,6.2%
7,CCOc1ccc(C(c2nnnn2C(C)(C)C)N2CCN(C(=O)c3ccco3)CC2)cc1 (stereo not shown),-41.6%
8,O=C(C1CCCC1)N1CCN(S(=O)(=O)c2cccc(Cl)c2Cl)CC1,9.17%
9,CCOC(=O)C1=C(C)NC(=O)NC1c1ccc(OC)c(CN2CCOCC2)c1 (stereo not shown),7.7%
10,COc1ccc(NC(=O)C2CCCN2S(=O)(=O)c2ccc3c(c2)CC(C)N3C(C)=O)cc1OC (stereo not shown),13.6%
11,CN1CCN(Cc2nc(Cc3ccccc3)no2)CC1c1ccccc1 (stereo not shown),-4.17%
12,COCCN(CCOC)c1nc(-c2ccccc2)nc2ccccc12,-15.8%
13,COc1cc2c(cc1OC)CN(C(=O)CCc1c[nH]c3ccccc13)[C@H](C(=O)O)C2,15.2%
14,COC(=O)CSc1nnc(CNc2ccc(Cl)cc2)n1-c1ccccc1,-6.46%
15,CN(C)CCNC(=O)C(=O)Nc1ccc2c(c1)N(S(=O)(=O)c1cccs1)CCC2,19%
16,Cc1ccc(NC(=O)O/N=C/c2ccc(Br)cc2)cc1,7.78%
17,CC1CN(c2nc3c(c(=O)n(Cc4ccc(Cl)c(Cl)c4)c(=O)n3C)n2C)CC(C)O1 (stereo not shown),-2.18%
18,CC(C)C(OC(=O)c1cccs1)C(=O)NCc1ccc2c(c1)OCO2 (stereo not shown),31%
19,Cn1c(Cc2cccs2)nnc1SCC(=O)Nc1ccc(C(N)=O)cc1,11.1%
20,CCCCCC/C(=N/O)c1ccccn1,10.3%
21,O=C(Nc1nccs1)c1ccc(F)c(S(=O)(=O)N2CCOCC2)c1,-1.16%
22,O=C(NCNC(=O)NC1C(=O)NC(=O)N1CO)NC1C(=O)NC(=O)N1CO (stereo not shown),4.63%
23,Brc1ccc(N=C/C=C/C=C/Nc2ccc(Br)cc2)cc1.Cl,1.96%

row,SMILES,"hERG current change (%, negative = inhibition) at 1uM"
1,CCN(CC)C(=O)C1CCCN(c2ccc([N+](=O)[O-])cc2/C=N/NC(=O)c2ccccc2)C1 (stereo not shown),7.25%
2,COc1ccc(C(=O)Nc2nc3ccccc3c(=O)[nH]2)cc1,11.4%
3,CCOc1c(Nc2ccccc2O)c(=O)c1=O,14.5%
4,COc1ccc(NS(=O)(=O)c2ccc3oc4ccccc4c3c2)cn1,23.4%
5,Cc1[nH]c2ccccc2c1/C=N/Nc1nc(Nc2ccccc2)nc(N2CCOCC2)n1,-3.33%
6,COc1ccccc1OCC(=O)NCC1CCCN(C(=O)c2ccccc2SC)C1 (stereo not shown),5.06%
7,CC12CCC3C(CC=C4CC(O)CCC43C)C1C/C(=C\c1cccc(F)c1)C2=O (stereo not shown),12.5%
8,O=C(NCCNC1CCCCC1)c1ccco1,16.9%
9,CCOc1ccc(N(CC(=O)N2CCOCC2)S(=O)(=O)c2ccc(Cl)cc2)cc1,3.85%
10,COc1ccc(N2CCc3c(C)nc4c(OC)cccc4c32)cc1,-28.3%
11,CCOC(=O)c1ccc(COC(=O)CNC(=O)CNC(=O)c2ccc(OC)cc2)o1,5.76%
12,CCCCN(C(=O)CSc1c(C)c(C)cc(C)c1C)c1c(N)n(CCC)c(=O)[nH]c1=O,23.3%
13,COc1ccc(N=Cc2c(C)[nH][nH]c2=O)cc1,6.4%
14,CC1=C(C(=O)Nc2ccccc2F)C(c2cccs2)C2=C(CCCC2=O)N1 (stereo not shown),7.95%
15,COc1ccc(S(=O)(=O)N(C)C)cc1NC(=O)c1ccc2c(c1)OCCO2,2.01%
16,CCOC(=O)c1sc2nc(C)n(N)c(=O)c2c1C,17.5%
17,CC(Sc1nnc2c(n1)[nH]c1ccccc12)C(=O)NC1CCCCC1 (stereo not shown),3.42%
18,CN(C(=O)c1ccccc1NC(=O)C(F)(F)F)c1ccccc1,6.4%
19,COC(=O)c1ccccc1C(=O)N1CCOCCOCCOCC1,12.5%
20,CCN(CC(=O)NCc1ccc(Cl)cc1)C(=O)/C=C/c1ccccc1,-1.79%
21,O=C1COc2ccc(C(=O)COC(=O)c3ccccn3)cc2N1,3.27%
22,Cc1ccc2cc3cc(C(=O)NCCCN4CCCC4=O)oc3nc2c1,11.6%
23,CCOC(=O)c1c[nH]c2c(C(F)(F)F)cccc2c1=O,12.3%

row,SMILES,"hERG current change (%, negative = inhibition) at 1uM"
1,Cc1ccc(NC(=O)c2ccc(S(=O)(=O)N3CCCC3)cc2)nc1,19.7%
2,Cc1noc(NS(=O)(=O)c2ccc(NC(=O)c3oc4ccc(Cl)cc4c3C)cc2)c1C,-3.06%
3,COc1cc(C(=O)N2CCc3ccccc32)ccc1OCc1c(C)noc1C,2.24%
4,CC1Cc2ccccc2N1C(=O)CNCCCN(C)C.O=C(O)C(=O)O (stereo not shown),3.76%
5,CCOC(=O)/C(=N/Nc1ccccc1)c1csc(Nc2ccccc2)n1,3.49%
6,Cc1c(O)nc(SC2CC(=O)N(c3ccccc3)C2=O)[nH]c1=O (stereo not shown),8.4%
7,Cc1cc(Cl)ccc1Oc1ncnc2onc(C)c12,6.75%
8,COc1ccc(/C=C(/NC(=O)c2ccco2)C(=O)Nc2ccc(C(=O)O)cc2)cc1,12.1%
9,O=C(Cn1cc2c(n1)CCCCC2)NC1CCN(Cc2ccccc2)CC1,-49.5%
10,O=C(O)Cn1cnc2ccccc2c1=O,9.17%
11,O=C(c1ccccc1)c1cnc2ccc(Cl)cc2c1N1CCOCC1,7.3%
12,Cc1cc(CNC(=O)COc2cc(F)ccc2[N+](=O)[O-])c2ccccc2n1,2.93%
13,Cc1nc2nc(COc3ccccc3)[nH]n2c(=O)c1C,9.79%
14,Cc1cc(C)c(NC(=O)C(=O)NCc2ccco2)c(C)c1,15.6%
15,Cn1nnnc1NCc1ccc(Cl)c(Cl)c1,5.37%
16,O=C(CCN1CCN(c2ccccc2)CC1)Nc1nccs1,12.9%
17,C=CC[n+]1c(-c2ccc(C)cc2)csc1NNC(=O)Nc1ccccc1.[Br-],-1.29%
18,COc1ccc(C(=O)NNC(=O)CSc2nc(C(C)C)nc3ccccc23)cc1,8.61%
19,CCOC(=O)c1ccc(NC(=O)Cc2coc3cc4c(cc23)CCC4)cc1,8.71%
20,COc1ccc(CNC(=O)CN2CCN(c3ccc(F)cc3)CC2)cc1,-2.16%
21,O=C(Nc1ccc(Cl)c(Cl)c1)N(Cc1cccnc1)Cc1ccco1,2.54%
22,CCn1c(=O)c2cc(C(=O)N3CCN(C)CC3)sc2c2ccccc21,12%
